Results: PubChem BioAssay AID894 (National Center for Advancing Translational Sciences (NCATS), 2007)
Among all 150,000 compounds or so, about 6,500 (4.3%) were called active. This list was built around the results that the source calls inconclusive (neither active nor inactive); the mix of calls is not that of the screen. Calls come from the whole dose curve; as a rule, active = well fitted inhibition curve with a large enough effect (not every such curve was filed as active); inconclusive = small, poorly fitted or top-dose-only effect, or another doubt; inactive = no such curve, though single readings can be large or run the other way. Potencies of inconclusive entries are left out as doubtful fits.
% is set by controls: 0 for no effect and ±100 for the full control effect; potency is the fitted concentration of half-maximal effect; tags give direction and shape of the fitted curve.

Each compound was assayed against 15-hydroxyprostaglandin dehydrogenase [NAD(+)] (Homo sapiens) (UniProt P15428) (assay: qHTS Assay for Inhibitors of HPGD (15-Hydroxyprostaglandin Dehydrogenase)). Settings: purified HPGD, NADH fluorescence kinetic, PGE2 substrate; activity change, negative = inhibition: stronger effect = lower value.
Chain of UniProt P15428 (P15428 whole entry, looked up): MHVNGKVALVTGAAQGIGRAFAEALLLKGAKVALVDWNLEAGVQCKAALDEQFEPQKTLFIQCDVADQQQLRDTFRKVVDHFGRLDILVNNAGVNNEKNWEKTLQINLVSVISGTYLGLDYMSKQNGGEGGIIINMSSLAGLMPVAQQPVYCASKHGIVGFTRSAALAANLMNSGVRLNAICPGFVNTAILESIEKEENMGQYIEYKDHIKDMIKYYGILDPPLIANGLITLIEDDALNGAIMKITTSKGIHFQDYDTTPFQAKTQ
Summary of the method: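 NADH formation kinetics: reaction with 30 uM PGE2 and 1 mM NAD+ (final), 20 nM enzyme, Tris-HCl pH 8 with Tween 20, after 15 min compound preincubation at room temperature. Fluorescence change, last versus first of five reads.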
`COc1c(N2C[C@@H]3CCCN[C@H]3C2)c(F)cc2c(=O)c(C(=O)O)cn(C3CC3)c12` was tested, and the Potency was inconclusive [inhibitor, partial curve].
`Cc1ccc(C(=O)N/N=C/c2nc3ccccc3n2C)cc1` was tested, and the Potency was inconclusive [inhibitor, single point].
With `CC(Sc1nc(C(C)(C)C)cc(-c2ccccc2)c1C#N)C(=O)Nc1ccccc1` (centres undefined) the Potency was active: 15.8 µM.
With `C[C@@H]1C(c2ccccc2)=NN(c2ccccc2)[C@H]1C(=O)N1CCOC1=O` the Potency was inconclusive [inhibitor, single point].
For `Cn1c(SCC(=O)c2ccccc2)nnc1-c1ccc(O)cc1`, the Potency was inconclusive [inhibitor, single point].
In the case of `O=C(c1cnc(N2CCN(c3ncccn3)CC2)c2ccccc12)N1CCN(c2ncccn2)CC1`, the Potency is reported as inconclusive [inhibitor, partial curve].
`O=C(CC(Cc1ccccc1)c1ccco1)NC1CCCCC1` (centres undefined) was tested, and the Potency was active: 14.1 µM.
For `CS(=O)(=O)N1CCC2(CCCN(c3ccccn3)C2)CC1`, the Potency was inconclusive [inhibitor, single point].
In the case of `COc1ccc(C(=O)NC(=S)Nc2cc(C)ccn2)cc1[N+](=O)[O-]`, the activity change, negative = inhibition is reported as inactive: -9.26%.
For `Cc1cc2n(c(=O)c1C#N)CCCN2c1cccc(Cl)c1`, the Potency was inconclusive [inhibitor, partial curve].
`CCOC(=O)c1oc2ccccc2c1NC(=O)c1ccccc1OC` was tested, and the Potency was inconclusive [inhibitor, single point].
In the case of `CC(C)c1cc(N2CCC(=O)NC2=O)cc(C(=O)O)c1O`, the Potency is reported as inconclusive [inhibitor, single point].
For `Cc1ccc(OC(C)C(=O)N2CCCc3ccccc32)cc1` (centres undefined), the Potency was inconclusive [inhibitor, partial curve].
For `CN(C)c1nc(N)nc(CSc2n[nH]c(-c3ccccc3)n2)n1`, the Potency was active: 3.98 µM.
In the case of `CCOc1ccc(S(=O)(=O)NCc2ccc(C)cc2)c2cccnc12`, the Potency is reported as inconclusive [inhibitor, partial curve].
In the case of `CCCCc1ccc(CC(=O)O)cc1`, the Potency is reported as active: 31.6 µM.
`COc1ccc(-n2cc(-c3ccccc3)[nH]c2=S)cc1` was tested, and the Potency was inconclusive [inhibitor, partial curve].
In the case of `O=C(O)c1ccccc1C(=O)NNc1ccc(F)cc1`, the Potency is reported as inconclusive [inhibitor, single point].
In the case of `CCC1(c2ccc(F)cc2)NC(=O)N(CC(=O)Nc2ccc(-c3nc4ccc(C)cc4s3)cc2)C1=O` (centres undefined), the Potency is reported as inconclusive [inhibitor, partial curve].
`COC(=O)CSc1nc2c(c(=O)n(C)c(=O)n2C)n1CCCc1ccccc1` was tested, and the activity change, negative = inhibition was inactive: -1.7%.
For `Cc1cc(C(=O)COc2ccc3ccc(=O)oc3c2)c(C)n1Cc1cccs1`, the Potency was inconclusive [inhibitor, single point].
With `CCCc1cc(NCCCN2CCOCC2)n2c(nc3ccccc32)c1C#N` the Potency was inconclusive [inhibitor, partial curve].
`COc1ccc(-c2noc(CCC(=O)Nc3cccc(C)c3)n2)cc1` was tested, and the Potency was inconclusive [inhibitor, single point].
`Cc1nc2nc(C)c(CCC(=O)N3CCOCC3)c(C)n2n1` was tested, and the activity change, negative = inhibition was inactive: -3.48%.
`COc1cc2c(cc1NCc1ccc3c(c1)OCO3)oc1ccccc12` was tested, and the Potency was inconclusive [inhibitor, partial curve].
`Cc1cc(SC#N)cc(C)c1NC(=O)CCl` was tested, and the Potency was inconclusive [inhibitor, full curve].
`CN(C)CCCO[C@H]1[C@@H]2OC(C)(C)O[C@@H]2O[C@@H]1[C@H](O)CO` was tested, and the activity change, negative = inhibition was inactive: 2.56%.
`CCn1c(N)c(C(=O)Nc2ccccc2C(=O)OC)sc1=S` was tested, and the Potency was active: 25.1 µM.
For `Cc1ccc(S(=O)(=O)N(CC(=O)N2CCc3ccccc3C2)c2cccc(Cl)c2)cc1`, the activity change, negative = inhibition was inactive: -8.94%.
For `CCOc1ccc(-c2nnc(-c3cccs3)o2)cc1`, the Potency was inconclusive [inhibitor, partial curve].
With `CCOC(=O)N1CCN(C(=O)CN(c2cccc(C(F)(F)F)c2)S(C)(=O)=O)CC1` the activity change, negative = inhibition was inactive: -3.6%.
In the case of `C=CCOn1c(C)c(C(C)=O)c2c3nonc3ccc21`, the Potency is reported as inconclusive [inhibitor, partial curve].
In the case of `CCCCn1c(-c2ccccc2)nc2c(=O)n(C)c(=O)[nH]c21`, the Potency is reported as inconclusive [inhibitor, partial curve].
`Cc1ccccc1C(=O)N1CCC(C(N)=O)CC1` was tested, and the activity change, negative = inhibition was inactive: -9.62%.
`O=C(NCc1ccccc1)c1noc2c1CCCCC2` was tested, and the Potency was inconclusive [inhibitor, partial curve].
With `COc1ccc(NS(=O)(=O)c2ccc(N3CCCC3)c(NC(=S)Nc3cccc(S(=O)(=O)N(C)C)c3)c2)cc1` the Potency was active: 3.16 µM.
For `COC(=O)c1oc2nc(C)cc(C)c2c1N`, the Potency was inconclusive [inhibitor, partial curve, poor fit].
In the case of `COC(=O)C[C@](O)(CCCC(C)(C)O)C(=O)O[C@@H]1C(OC)=C[C@]23CCCN2CCc2cc4c(cc2[C@H]13)OCO4`, the activity change, negative = inhibition is reported as inactive: 1.53%.
In the case of `CCOC(=O)c1c(-c2ccccc2)csc1NC(=O)c1ccc(N2C(=O)CCC2=O)cc1`, the Potency is reported as inconclusive [inhibitor, partial curve].
In the case of `CN1CC=C2C(C#N)=C(N)C(C#N)(C#N)C(c3ccsc3)C2C1` (centres undefined), the Potency is reported as inconclusive [inhibitor, single point].
In the case of `COc1ccc2nc3c(cc2c1)c(NC(=O)C1CCCO1)nn3CC(C)C` (centres undefined), the Potency is reported as inconclusive [inhibitor, partial curve].
`C/C(=N/NC(=O)Cc1cc(=O)[nH][nH]1)c1ccc([N+](=O)[O-])cc1` was tested, and the activity change, negative = inhibition was inactive: -21.3%.
In the case of `CCCC(C)c1nnc(NC(=O)CS(=O)(=O)Cc2ccccc2)s1` (centres undefined), the Potency is reported as active: 12.6 µM.
`Cc1ccc(-c2nn(C)c(=O)c3ccccc23)cc1CNC(=O)CN1CCOCC1` was tested, and the Potency was active: 20 µM.
For `COc1ccc(CCNc2ccc(C)cc2)cc1`, the activity change, negative = inhibition was inactive: -8.87%.
For `CCCOc1ccccc1-n1sc2c(c1=S)-c1cc(OC)cc3c1N(C(=O)C3=O)C2(C)C`, the activity change, negative = inhibition was inactive: -19.2%.
With `Cc1ccc2c(CC(=O)OCC(=O)Nc3ccc(Cl)cn3)coc2c1` the Potency was inconclusive [inhibitor, partial curve].
`Cc1cnc(C(=O)OCC(=O)NC23CC4CC(CC(C4)C2)C3)cn1` was tested, and the activity change, negative = inhibition was inactive: -0.13%.
With `FC(F)(F)c1cc(-c2ccco2)nc(NCc2ccco2)n1` the activity change, negative = inhibition was inactive: -4.61%.
With `CC(C)CN(C(=O)CSc1nnc2c(Cl)cc(C(F)(F)F)cn12)C1CCS(=O)(=O)C1` (centres undefined) the Potency was inconclusive [inhibitor, partial curve].
`COc1nc(-c2ccccc2)cc(-c2ccc(OC)c(OC)c2)n1` was tested, and the Potency was inconclusive [inhibitor, partial curve].
With `COCCOc1ccc(C(F)(F)F)cc1NC(=O)c1ccc(C)cc1` the Potency was inconclusive [inhibitor, partial curve, poor fit].
In the case of `COC(=O)c1sccc1NC(=S)N1CC(C)CC(C)C1` (centres undefined), the Potency is reported as inconclusive [inhibitor, partial curve].
In the case of `O=S(NCc1ccco1)C12CC3CC(CC(C3)C1)C2` (centres undefined), the Potency is reported as inconclusive [inhibitor, single point].
With `O=c1cc(O)nc(SCc2ccc(Cl)cc2)[nH]1` the activity change, negative = inhibition was inactive: -11.2%.
For `CC(C)CNC(=O)/C=C/c1cccs1`, the Potency was inconclusive [inhibitor, partial curve, poor fit].
For `CCCCCCC(=O)Nc1nc(C)c(-c2csc(Nc3cc(Cl)ccc3C)n2)s1`, the activity change, negative = inhibition was inactive: -22.2%.
`COc1ccc(C(C[N+](=O)[O-])c2c(-c3ccccc3)cc3ccccn23)cc1` (centres undefined) was tested, and the Potency was active: 28.2 µM.
`Cc1ccc(/C=C/c2nnc(-c3ccccc3)o2)cc1` was tested, and the Potency was inconclusive [inhibitor, partial curve].
`O=C(OCn1ncc(Br)c(Br)c1=O)c1c(F)cccc1F` was tested, and the Potency was active: 28.2 µM.
`CCOc1cc(/C=C(/C#N)c2nc3ccccc3[nH]2)ccc1Oc1ccc([N+](=O)[O-])cn1` was tested, and the Potency was inconclusive [inhibitor, partial curve].
For `O=S(=O)(NCC1CCCO1)c1ccc(S(=O)(=O)N2CCCC2)cc1` (centres undefined), the activity change, negative = inhibition was inactive: -1.31%.
With `COc1ccccc1CNC(=O)C(C)NS(=O)(=O)c1ccccc1` (centres undefined) the Potency was inconclusive [inhibitor, single point].
In the case of `Cc1ccc(-c2csc(NC(=O)C3CC=CCC3C(=O)O)c2C(=O)OC(C)C)cc1` (centres undefined), the Potency is reported as inconclusive [inhibitor, partial curve].
In the case of `CCn1c(=NC(=O)c2ccc(S(=O)(=O)N3CCOCC3)cc2)sc2cccc(OC)c21`, the Potency is reported as inconclusive [inhibitor, partial curve].
With `O=C1CC(Sc2nnc(-c3ccccc3O)o2)C(=O)N1c1ccccc1` (centres undefined) the Potency was inconclusive [inhibitor, single point].
In the case of `NC(=O)CSc1nnc(-c2cc(-c3cccs3)nc3ccccc23)o1`, the Potency is reported as inconclusive [inhibitor, partial curve].
In the case of `COc1ccc(N(C)S(=O)(=O)c2cccc(C(=O)Nc3ccc(-n4cnnn4)cc3)c2)cc1`, the Potency is reported as inconclusive [inhibitor, single point].
In the case of `CCCn1c(N)c(C(=O)COC(=O)c2c(C)noc2C)c(=O)n(C)c1=O`, the Potency is reported as inconclusive [inhibitor, partial curve].
